Viability of KB3-1 and Nalm-6 cells after 48 h of drug alone (CellTiter-Glo), 11 doses over about 4.5 log units. % of DMSO wells, lower = more cell loss; AC50 from the fitted curve, lower = more potent. No active / inactive call. Nalm-6 was screened in two runs. AC50 is listed only for well-fitted inhibitory curves. KB3-1 is a HeLa-derived carcinoma line, Nalm-6 a B-cell precursor leukaemia line.
Experiments:
[1] = test system: Nalm-6; test: viability (% of DMSO control); higher = more viable cells
Protocol: (§1)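 Eleven-dose screen of the NCATS MIPE 3 library on cells without co-treatment; CellTiter-Glo after 48 h, as % of DMSO wells.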

[2] = test system: KB3-1; test: as above
Protocol: as §1

[3] = test system: Nalm-6; test: log AC50 of viability decrease (48 h) (log10 M); higher = less potent
Protocol: (§2)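 Eleven-dose screen of the NCATS MIPE 3 library on cells without co-treatment; CellTiter-Glo after 48 h. AC50 from the curve fit; only inhibitory curves of the better fit classes are listed.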

[4] = test system: KB3-1; test: as above
Protocol: as §2

COC(=O)Nc1ccc(-c2nc(N3CCOCC3)c3cnn(C4CCN(C(=O)OC)CC4)c3n2)cc1 [WYE-354]
Details	log AC50 of viability decrease	viability [%]
[1], run: 1, 0.00078 µM	–	99.9
[1], run: 1, 0.00234 µM	–	102
[1], run: 1, 0.00702 µM	–	106
[1], run: 1, 0.0211 µM	–	98
[1], run: 1, 0.0632 µM	–	92.9
[1], run: 1, 0.19 µM	–	93.7
[1], run: 1, 0.569 µM	–	93.4
[1], run: 1, 1.71 µM	–	78.8
[1], run: 1, 5.12 µM	–	65.1
[1], run: 1, 15.4 µM	–	60.9
[1], run: 1, 46.1 µM	–	6.49
[1], run: 2, 0.00078 µM	–	105
[1], run: 2, 0.00234 µM	–	106
[1], run: 2, 0.00702 µM	–	103
[1], run: 2, 0.0211 µM	–	109
[1], run: 2, 0.0632 µM	–	108
[1], run: 2, 0.19 µM	–	103
[1], run: 2, 0.569 µM	–	91.9
[1], run: 2, 1.71 µM	–	90
[1], run: 2, 5.12 µM	–	68.2
[1], run: 2, 15.4 µM	–	72.8
[1], run: 2, 46.1 µM	–	3.97
[2], 0.00078 µM	–	95.2
[2], 0.00234 µM	–	100
[2], 0.00702 µM	–	101
[2], 0.0211 µM	–	90.2
[2], 0.0632 µM	–	81.4
[2], 0.19 µM	–	71.1
[2], 0.569 µM	–	59
[2], 1.71 µM	–	47.2
[2], 5.12 µM	–	45
[2], 15.4 µM	–	45.1
[2], 46.1 µM	–	40.9
[3], run: 1	-4.73	–
[3], run: 2	-4.78	–

Details	log AC50 of viability decrease
[4]	-6.73

C=CC(=O)Nc1cccc(Oc2nc(Nc3ccc(N4CCN(C)CC4)cc3OC)ncc2Cl)c1 [WZ-4002]
Details	log AC50 of viability decrease	viability [%]
[1], run: 1, 0.00078 µM	–	98.5
[1], run: 1, 0.00234 µM	–	103
[1], run: 1, 0.00702 µM	–	105
[1], run: 1, 0.0211 µM	–	106
[1], run: 1, 0.0632 µM	–	106
[1], run: 1, 0.19 µM	–	88.5
[1], run: 1, 0.569 µM	–	103
[1], run: 1, 1.71 µM	–	88
[1], run: 1, 5.12 µM	–	78.6
[1], run: 1, 15.4 µM	–	50
[1], run: 1, 46.1 µM	–	-0.463
[1], run: 2, 0.00078 µM	–	105
[1], run: 2, 0.00234 µM	–	110
[1], run: 2, 0.00702 µM	–	108
[1], run: 2, 0.0211 µM	–	104
[1], run: 2, 0.0632 µM	–	104
[1], run: 2, 0.19 µM	–	109
[1], run: 2, 0.569 µM	–	101
[1], run: 2, 1.71 µM	–	87.4
[1], run: 2, 5.12 µM	–	75.9
[1], run: 2, 15.4 µM	–	56.6
[1], run: 2, 46.1 µM	–	2.18
[2], 0.00078 µM	–	100
[2], 0.00234 µM	–	109
[2], 0.00702 µM	–	101
[2], 0.0211 µM	–	105
[2], 0.0632 µM	–	106
[2], 0.19 µM	–	100
[2], 0.569 µM	–	99.5
[2], 1.71 µM	–	100
[2], 5.12 µM	–	97.8
[2], 15.4 µM	–	85.5
[2], 46.1 µM	–	19.2
[3], run: 1	-4.78	–
[3], run: 2	-4.78	–

Details	log AC50 of viability decrease
[4]	-4.63

C[C@H]([C@H]1C\C(=C(CO)/C(=O)O1)C)[C@H]2CC[C@H]3[C@@H]4C[C@H]5O[C@]56[C@@H](O)\C=C/C(=O)[C@]6(C)[C@H]4CC[C@]23C [Withaferin A]
Details	log AC50 of viability decrease	viability [%]
[1], run: 1, 0.00078 µM	–	116
[1], run: 1, 0.00234 µM	–	109
[1], run: 1, 0.00702 µM	–	109
[1], run: 1, 0.0211 µM	–	105
[1], run: 1, 0.0632 µM	–	76.7
[1], run: 1, 0.19 µM	–	11.3
[1], run: 1, 0.569 µM	–	3.67
[1], run: 1, 1.71 µM	–	2.53
[1], run: 1, 5.12 µM	–	1.98
[1], run: 1, 15.4 µM	–	2.59
[1], run: 1, 46.1 µM	–	0.486
[1], run: 2, 0.00078 µM	–	108
[1], run: 2, 0.00234 µM	–	113
[1], run: 2, 0.00702 µM	–	103
[1], run: 2, 0.0211 µM	–	97.4
[1], run: 2, 0.0632 µM	–	64.5
[1], run: 2, 0.19 µM	–	4.13
[1], run: 2, 0.569 µM	–	2.45
[1], run: 2, 1.71 µM	–	2.22
[1], run: 2, 5.12 µM	–	2.34
[1], run: 2, 15.4 µM	–	2.08
[1], run: 2, 46.1 µM	–	0.771
[2], 0.00078 µM	–	104
[2], 0.00234 µM	–	99.1
[2], 0.00702 µM	–	104
[2], 0.0211 µM	–	98.7
[2], 0.0632 µM	–	98.3
[2], 0.19 µM	–	98.6
[2], 0.569 µM	–	85.4
[2], 1.71 µM	–	55.6
[2], 5.12 µM	–	44.1
[2], 15.4 µM	–	17.1
[2], 46.1 µM	–	1.34
[3], run: 1	-7.08	–
[3], run: 2	-7.13	–

Details	log AC50 of viability decrease
[4]	-5.43

Cc1cc(-c2ccc(CC(=O)Nc3ccc(-c4cccnc4)cc3)cc2)ccn1 [Wnt-C59]
Details	log AC50 of viability decrease	viability [%]
[1], run: 1, 0.00078 µM	–	116
[1], run: 1, 0.00234 µM	–	117
[1], run: 1, 0.00702 µM	–	114
[1], run: 1, 0.0211 µM	–	106
[1], run: 1, 0.0632 µM	–	111
[1], run: 1, 0.19 µM	–	112
[1], run: 1, 0.569 µM	–	116
[1], run: 1, 1.71 µM	–	110
[1], run: 1, 5.12 µM	–	102
[1], run: 1, 15.4 µM	–	77.3
[1], run: 1, 46.1 µM	–	31.9
[1], run: 2, 0.00078 µM	–	116
[1], run: 2, 0.00234 µM	–	114
[1], run: 2, 0.00702 µM	–	109
[1], run: 2, 0.0211 µM	–	116
[1], run: 2, 0.0632 µM	–	116
[1], run: 2, 0.19 µM	–	109
[1], run: 2, 0.569 µM	–	117
[1], run: 2, 1.71 µM	–	111
[1], run: 2, 5.12 µM	–	102
[1], run: 2, 15.4 µM	–	88.2
[1], run: 2, 46.1 µM	–	41
[2], 0.00078 µM	–	102
[2], 0.00234 µM	–	97.2
[2], 0.00702 µM	–	99.6
[2], 0.0211 µM	–	101
[2], 0.0632 µM	–	94.8
[2], 0.19 µM	–	93.9
[2], 0.569 µM	–	101
[2], 1.71 µM	–	96.3
[2], 5.12 µM	–	89.9
[2], 15.4 µM	–	81.1
[2], 46.1 µM	–	63.8
[3], run: 1	-4.78	–
[3], run: 2	-4.73	–

Details	log AC50 of viability decrease
[4]	-4.73

CCOc1cc(N2CCC(O)CC2)ccc1Nc1ncc2c(n1)N(C)c1ccccc1C(=O)N2C [XMD8-92]
Details	log AC50 of viability decrease	viability [%]
[1], run: 1, 0.00078 µM	–	118
[1], run: 1, 0.00234 µM	–	118
[1], run: 1, 0.00702 µM	–	118
[1], run: 1, 0.0211 µM	–	115
[1], run: 1, 0.0632 µM	–	119
[1], run: 1, 0.19 µM	–	115
[1], run: 1, 0.569 µM	–	107
[1], run: 1, 1.71 µM	–	95.9
[1], run: 1, 5.12 µM	–	58.7
[1], run: 1, 15.4 µM	–	54.7
[1], run: 1, 46.1 µM	–	4.78
[1], run: 2, 0.00078 µM	–	113
[1], run: 2, 0.00234 µM	–	115
[1], run: 2, 0.00702 µM	–	112
[1], run: 2, 0.0211 µM	–	114
[1], run: 2, 0.0632 µM	–	114
[1], run: 2, 0.19 µM	–	114
[1], run: 2, 0.569 µM	–	104
[1], run: 2, 1.71 µM	–	91.7
[1], run: 2, 5.12 µM	–	58.2
[1], run: 2, 15.4 µM	–	46.2
[1], run: 2, 46.1 µM	–	0.564
[2], 0.00078 µM	–	101
[2], 0.00234 µM	–	105
[2], 0.00702 µM	–	99.8
[2], 0.0211 µM	–	102
[2], 0.0632 µM	–	104
[2], 0.19 µM	–	104
[2], 0.569 µM	–	99.7
[2], 1.71 µM	–	95.1
[2], 5.12 µM	–	87.8
[2], 15.4 µM	–	76.3
[2], 46.1 µM	–	52.6
[3], run: 1	-4.88	–
[3], run: 2	-4.88	–

Details	log AC50 of viability decrease
[4]	-4.78

CC1CC(C)C(=O)C(C(O)CC2CC(=O)NC(=O)C2)C1 (stereo unspecified) [cycloheximide]
Details	log AC50 of viability decrease	viability [%]
[1], run: 1, 0.00156 µM	–	91.6
[1], run: 1, 0.00468 µM	–	100
[1], run: 1, 0.014 µM	–	97.2
[1], run: 1, 0.0421 µM	–	70.7
[1], run: 1, 0.126 µM	–	53.5
[1], run: 1, 0.379 µM	–	38.6
[1], run: 1, 1.14 µM	–	28.7
[1], run: 1, 3.41 µM	–	34.1
[1], run: 1, 10.2 µM	–	50.1
[1], run: 1, 30.7 µM	–	47
[1], run: 1, 92.2 µM	–	35.6
[1], run: 2, 0.00156 µM	–	105
[1], run: 2, 0.00468 µM	–	97.1
[1], run: 2, 0.014 µM	–	98
[1], run: 2, 0.0421 µM	–	73.5
[1], run: 2, 0.126 µM	–	56.4
[1], run: 2, 0.379 µM	–	46.4
[1], run: 2, 1.14 µM	–	24.6
[1], run: 2, 3.41 µM	–	18.3
[1], run: 2, 10.2 µM	–	50.6
[1], run: 2, 30.7 µM	–	49.6
[1], run: 2, 92.2 µM	–	48
[2], 0.00156 µM	–	93.4
[2], 0.00468 µM	–	97.5
[2], 0.014 µM	–	94.7
[2], 0.0421 µM	–	84.4
[2], 0.126 µM	–	66.2
[2], 0.379 µM	–	45.6
[2], 1.14 µM	–	29.5
[2], 3.41 µM	–	27.7
[2], 10.2 µM	–	23.6
[2], 30.7 µM	–	22.1
[2], 92.2 µM	–	13.6
[3], run: 1	-7.27	–
[3], run: 2	-7.27	–

Details	log AC50 of viability decrease
[4]	-6.72
